Hit rate of the full screen: of about 48,000 compounds, about 450 (0.94%) were called active. Inconclusive results (about 19%) are left out. Calls follow the shape of the dose curve; as a rule, active = well fitted inhibition curve with a large enough effect; inconclusive = small, poorly fitted or top-dose-only effect; inactive = no such curve, though single readings can be large or run the other way. The list shows a part of the results.
Assay: Primary qHTS for Identification of Small Molecule Inhibitors of Huntingtin Promoter Activity; also: nearly all actives have a fitted effect of over 50% in size
Conditions: HEK293 HTT promoter firefly luciferase reporter (activity 0% = vehicle and -100% = no light), 24 h; series mostly up to 57.5 µM; activity change, negative = inhibition: at the top concentration
Outline: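 HEK293 cells carrying firefly luciferase reporters were seeded at 2,500 per well in Opti-MEM and cultured for 24 h. They were then treated with compounds at up to 57.5 uM final for 24 h at 37 degrees C before Dual-Glo luminescence readout.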

Activity change, negative = inhibition, inactive:
Cc1ccc(S(=O)(=O)c2nnn(CC(=O)Nc3ccccc3C)c2N)cc1C 0.916%
O=C(CCC1N=C2c3ccccc3N=C(SCc3ccccc3Cl)N2C1=O)NCc1cccs1 (stereo unspecified) -11.8%
O=C(NCc1ccccc1F)C(=O)NCC(c1cccs1)S(=O)(=O)c1cccs1 (stereo unspecified) -14.4%
CCOc1ccc(OCC)c(NC(=O)c2cnc3c(-c4ccccc4)c(C)nn3c2C)c1 -12.9%
COC(=O)c1cc2oc(C)cc2n1Cc1cccc(Cl)c1 -26.9%
Cc1ccc(-n2c(=O)c3c(c4cc(C)ccc4n3C)n(CC(=O)NCCC3=CCCCC3)c2=O)cc1 8.47%
O=c1c2oc3ccccc3c2n(Cc2cccc(Cl)c2)c(=O)n1Cc1ccc2c(c1)OCO2 -23.5%
COc1ccccc1OCC(=O)NCC1(N2CCOCC2)CCCCC1 -17.7%
O=C(NCc1cccc(Cl)c1)c1ccc(CS(=O)Cc2ccccc2Cl)o1 (stereo unspecified) -27.2%
O=c1oc2c(F)cc(F)cc2cc1S(=O)(=O)c1ccc(F)cc1 -21.1%
CCOc1ccc(N(CC)C(=O)c2cc3c(=O)oc4ccccc4c3s2)cc1 -6.63%
NC(=O)c1ncn([C@@H]2O[C@H](CO)[C@@H](O)[C@@H]2O)c1N 12.8%
Cc1ccn2c(=O)c(C(=O)Nc3ccc(F)c(C(F)(F)F)c3)cnc2c1 0.123%
CCOc1ccc(-c2nonc2NC(=O)c2oc3ccc(Cl)cc3c2C)cc1 -12.4%
COc1cccc(NC(=O)c2oc3ccccc3c2NC(=O)COc2ccccc2C)c1 21.3%
COC(=O)c1ccccc1NC(=O)CCCn1nc(C)c2sc3ccccc3c2c1=O -0.614%
COc1ccc(-c2nnn3c2nc(NCc2ccccc2)c2ccccc23)cc1 16.5%
CC1=C(C(=O)Nc2ccc(C)cc2C)C(CC(C)C)n2nc(SCc3ccccc3C)nc2N1 (stereo unspecified) -6.33%
COc1ccc(-c2ccc(NS(=O)(=O)c3ccccc3)cc2)nn1 -19.7%
CCOc1ccc(-c2cc(C(=O)NCc3ccc(OCC)c(OC)c3)[nH]n2)cc1 -11.5%
O=c1c2sc3ccccc3c2n(Cc2ccc(F)cc2)c(=O)n1Cc1ccccc1 -8.37%
CCc1cccc(CC)c1NC(=O)CCS(=O)(=O)c1ccc(Br)cc1 -22.5%
Cc1cc(C)n2nc(SCC(=O)Nc3ccc(O)cc3)nc2n1 -6.28%
Cc1ccc(NC(=O)CSc2ncccc2C(=O)Oc2ccccc2Cl)cc1Cl -16.2%
COc1cc(C)ccc1OCCSc1nc2ccc(NC(=O)c3ccc4c(c3)OCO4)cc2s1 -28.7%
Cc1ccccc1-c1nc2c(c(SCc3cccc(Cl)c3)n1)Cc1c(CO)cnc(C)c1O2 -12.2%
CCc1ccc(NC(=O)Cn2c(=O)n(CCCC(=O)NCc3ccccc3OC)c(=O)c3ccccc32)cc1 -2.75%
COc1cc(-c2nc(Cn3nnc(C(=O)Nc4ccccc4C)c3C)c(C)o2)cc(OC)c1OC -4.99%
Cn1c(CNc2ccc(C(=N)N)cc2)nc2cc(C(=O)N(CCC(=O)O)c3ccccn3)ccc21 -1.98% [at 25.2 µM]
COc1ccc(C)cc1NC(=O)c1ccc2c(c1)N(Cc1cccc(Cl)c1)C(=O)c1ccccc1S2=O (stereo unspecified) -1.95%
CNC1CCCN(c2c(F)cc3c(=O)c(C(=O)O)cn(C4CC4)c3c2OC)C1 (stereo unspecified)
Clc1cccc(N2CCN(c3nc4ccccc4c4nc(-c5cccnc5)nn34)CC2)c1 1.87%
CC(=O)N1c2ccc(S(=O)(=O)N3CCCCCC3)cc2CC1C(=O)NCc1cccc(F)c1 (stereo unspecified) -16.4%
Cc1ccc(S(=O)(=O)c2nc(-c3cccs3)oc2SC(C)c2ccccc2)cc1 (stereo unspecified) -19.1%
CCS(=O)(=O)N1CCc2cc(C(=O)N3CCN(c4ccccc4)CC3)ccc21 -10.1%
CCOC(=O)c1noc2ncn(CC(=O)Nc3ccc(OC)c(Cl)c3)c(=O)c12 -8.03%
Cc1cccc(NC(=O)CSc2nc(=O)n(CCN3CCOCC3)c3c2CCC3)c1C -11.5%
CCCC(=O)NCc1nc2cccnc2n1Cc1ccc(F)cc1 1.17%
Cc1cccc(Cn2nnc3c(=O)[nH]c(C4CCN(C(=O)c5ccccc5F)CC4)nc32)c1 -18%
C=CCN1C[C@H](C(=O)N(CCCN(C)C)C(=O)NCC)C[C@@H]2c3cccc4[nH]cc(c34)C[C@H]21 7.54%
Cc1ccc(NC(=O)Cn2c(=O)n(Cc3ccc4c(c3)OCO4)c(=O)c3ccc(C(=O)NC4CCCCC4)cc32)cc1 -8.05%
CCOC(=O)c1ccc(NC(=O)Cc2coc3cc(C)cc(C)c23)cc1 -9.26%
O=C(Nc1cc(-c2nc3ccccc3o2)ccc1Cl)c1cccc2c(Cl)cccc12 8.08%
COc1ccc(S(=O)(=O)NCc2cccn2Cc2cccc(C)c2)cc1OC -18%
CCCCc1nn2c(=O)cc(COC(=O)c3ccccc3NC(=O)C3CCCCC3)nc2s1 -18.6%
CCN(C(=O)CSc1nnc(C)n2c1cc1occc12)c1ccccc1 9.45%
CCOc1ccc(NC(=O)c2cc3c(=O)n4cccc(C)c4nc3s2)cc1 10.7%
Cc1cc([N+](=O)[O-])ccc1NC(=O)CSc1nccn1C -21.1%
O=C(CSc1cn(CC(=O)N2CCOCC2)c2ccccc12)Nc1ccccc1C(F)(F)F -4.13%
CCOC(=O)CSc1nc2c([nH]c3ccccc32)c(=O)n1-c1ccc(OCC)cc1 -11.1%
Cc1ccccc1C(=O)Nc1nc2c(s1)CC(C(C)(C)C)CC2 (stereo unspecified) 5.92%
COc1ccc(-c2c(C)c3ccc(O)c(CN4CCN(C)CC4)c3oc2=O)cc1OC -20.6%
COc1ccc2c(c1)c1c(c(=O)n(-c3cccc(Cl)c3)c(=O)n1C)n2C -4.55%
Cc1cccc2sc(N(Cc3cccnc3)C(=O)C3CCCCC3)nc12 -29%
COc1ccc(S(=O)(=O)c2cn(CC(=O)Nc3ccccc3)c3ccc(Cl)cc3c2=O)cc1 -29%
O=C(CSc1nc2c([nH]c3ccccc32)c(=O)n1-c1ccc(F)cc1)N1CCCCCC1 -14.4%
COc1ccc(Br)cc1CNC(=O)CCC(=O)N1CCSc2ccccc21 -24.5%
O=C(Cn1cc(SCc2cccc(C(F)(F)F)c2)c2ccccc21)N1CCCCCC1 -23.7%
COc1cccc2cc(-c3nc(-c4cccs4)no3)c(=O)oc12 0.646%
CN1C(=O)C2CCCCN2c2ccc(C(=O)NCc3ccccc3Br)cc21 (stereo unspecified) 0%
COc1cc(NC(=O)CCc2c(C)nc3c(c(C)nn3-c3ccccc3)c2C)cc(OC)c1OC -15.3%
CCOC(=O)c1c(C)c(C(=O)NCCc2ccc(OC)cc2)c(C)n1CC -5.82%
CC(=O)c1c(C)n(-c2cccc(C)c2)c2ccc(OC(=O)COc3ccccc3)cc12 -6.61%
COc1cccc(-c2cc(C(=O)NCCc3ccc(C)cc3)[nH]n2)c1 -2.66%
Cc1ccc(NS(=O)(=O)c2c(C(=O)N3CCCCCC3)c(C)n(C)c2C)cc1F -6.1%
CCOc1ccc(CNC(=O)Cn2nc(C)c3sc4ccccc4c3c2=O)cc1 3.67%
COc1ccc(C)cc1NC(=O)CN1C(=O)CCc2cc(S(=O)(=O)N3CCOCC3)ccc21 -7.88%
Cc1ccc(C(c2sc3nc(-c4ccco4)nn3c2O)N2CCCCC2)cc1 (stereo unspecified) -18%
CC(=O)c1ccc(NC(=O)CSc2nc(-c3ccccc3F)nc3c2c(=O)n(C)c(=O)n3C)cc1 -13%
CCc1nn(CC(=O)Nc2c(C)cc(C)cc2C)c(=O)c2cc3sccc3n12 -5.55%
C=Cc1ccc(Cn2c(=O)n(-c3ccccc3C)c(=O)c3c4c(sc32)CN(C(C)=O)CC4)cc1 -27.5%
Cc1ccc(N(C)S(=O)(=O)c2ccc3[nH]cc(C(=O)O)c(=O)c3c2)cc1C -0.855%
CCN(Cc1ccccc1)C(=O)Nc1ccc2c(c1)N(C)C(=O)c1ccccc1S2 -9.5%
CN1CCC(=C2c3ccccc3C=Cc3ccccc32)CC1
CCOC(=O)c1c(-c2ccc(C)cc2)csc1NC(=O)c1cc(=O)c2cc(C)c(C)cc2o1 -10.2%
Cc1ccc(NC(=O)C2CCN(c3nc4ccccc4[nH]3)CC2)cc1Cl -3.07%
O=C(NC1(C(F)(F)F)NC(=O)N(CCc2ccccc2)C1=O)c1ccccc1F (stereo unspecified) -5.2%
COc1cccc(CSc2nc3cc(OC)c(OC)cc3c3nc(CCn4nc(C)cc4C)nn23)c1 -3.08%
CCOc1ccc2nc(N(Cc3cccnc3)C(=O)c3ccc4c(c3)OCCO4)sc2c1 -5.12%
COC(=O)c1cc2sc(C)cc2n1Cc1ccc(F)cc1Cl -12.7%
O=c1n(Cc2ccc(F)cc2Cl)c2ccccc2c2nc(-c3ccccc3)nn12 -11.9%
CCCCN(CC)CCCNC(=O)c1cn(CC(C)C)c(=O)c2c1c1ccccc1n2C -17.3%
Cn1c(=O)c2c(nc(NCCc3ccccc3)n2Cc2cccc(Br)c2)n(C)c1=O -14%
Cc1ccc(CCNC(=O)c2nnc(Cc3cccc(F)c3)o2)cc1 -16.6%
CC(C)Oc1ccc(C(=O)Nc2ccc3oc(-c4ccncc4)nc3c2)cc1 -41.7%
COc1ccc(S(=O)(=O)NCC(c2cccs2)S(=O)(=O)c2ccc(C)cc2)cc1F (stereo unspecified) -26.4%
Cc1[nH]c2ccc(F)cc2c1CCNC(=O)c1cc2cc(Cl)ccc2oc1=O 17.3%
COc1cc(NC(=O)C(NC(=O)C2CCC(C)CC2)C(C)C)cc(OC)c1OC (stereo unspecified) 10.1%
COc1ccc(Cl)cc1NS(=O)(=O)c1c(C)nc2scc(C)n2c1=O -5.06%
COCCn1c(CNC(=O)c2cc([N+](=O)[O-])ccc2Cl)nc2cccnc21 1.96%
COc1ccc(C(=O)Nc2onc3c2CCCC3)cc1 2.17%
COc1ccc(NC(=O)Cn2cnc3c(nc4n3CCCCC4)c2=O)c(OC)c1 -15.2% [at 11.5 µM]
COCCCn1c(=N)c(C(=O)NC2CCCCC2)cc2c(=O)n3ccccc3nc21 -1.69%
COc1ccc(C2=CC(c3ccc(N(C)C)cc3)n3nnnc3N2)cc1 (stereo unspecified) -5.35%
Cc1c(CNC2CCCCCC2)c(C(=O)O)c(C)n1Cc1c(F)cccc1Cl -21.5%
CCOC(=O)c1ccccc1NC(=O)Cc1c(C(=O)O)c(C)cn1C -22.9%
